Several values for one entry are separate records, joined by “and”; a condition that tells them apart may be missing. Equal entries are not always repeated. About 3,600 (1.6%) of roughly 230,000 compounds were called active. Inconclusive results, whose numbers are uncertain, are shown with a selection of clear calls. Calls come from the whole dose curve; as a rule, active = well fitted inhibition curve with a large enough effect (not every such curve was filed as active); inconclusive = small, poorly fitted or top-dose-only effect, or another doubt; inactive = no such curve, though single readings can be large or run the other way. Potencies of inconclusive entries are doubtful fits and often do not repeat.
The compounds below were run against Lysine-specific demethylase 4E (Homo sapiens) (UniProt B2RXH2) (assay: qHTS Assay for Inhibitors of Human Jumonji Domain Containing 2E (JMJD2E)). Details: JMJD2E catalytic domain, FDH-coupled NADH fluorescence (FDH is formaldehyde dehydrogenase); series mostly up to 57.1 µM; activity change, negative = inhibition: at the top concentration.
Note: nearly all actives have a fitted effect of over 50% in size.
Potency is the fitted concentration of half-maximal effect; tags give direction and shape of the fitted curve.
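Throughout, for activity change, negative = inhibition: 0% = wells with enzyme and -100% = buffer wells without enzyme.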

Chain of UniProt B2RXH2 (B2RXH2 whole entry, looked up, the tested form may be a part): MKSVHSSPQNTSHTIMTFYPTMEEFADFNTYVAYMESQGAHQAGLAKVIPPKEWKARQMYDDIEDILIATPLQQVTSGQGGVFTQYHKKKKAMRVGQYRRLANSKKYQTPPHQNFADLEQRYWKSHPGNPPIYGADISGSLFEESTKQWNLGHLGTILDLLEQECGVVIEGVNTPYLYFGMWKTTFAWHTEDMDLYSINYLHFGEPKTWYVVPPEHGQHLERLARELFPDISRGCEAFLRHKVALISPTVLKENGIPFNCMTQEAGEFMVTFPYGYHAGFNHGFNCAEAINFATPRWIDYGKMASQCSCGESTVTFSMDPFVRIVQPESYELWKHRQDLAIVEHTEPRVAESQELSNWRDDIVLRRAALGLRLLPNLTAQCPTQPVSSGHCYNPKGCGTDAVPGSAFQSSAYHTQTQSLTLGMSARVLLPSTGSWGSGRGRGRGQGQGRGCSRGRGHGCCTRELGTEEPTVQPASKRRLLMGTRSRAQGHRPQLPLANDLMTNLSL

| Structure (SMILES) | Potency | activity change, negative = inhibition |
| --- | --- | --- |
| O=C1C(=O)N(CCN2CCOCC2)C(c2ccccn2)/C1=C(/O)c1ccc(Cl)cc1 (stereo not drawn) | inconclusive: 31.6 µM [inhibitor, single point] |  |
| O=C(Nc1nccs1)c1ccc(Cl)cc1[N+](=O)[O-] |  | inactive: 1.94% |
| O=C(Cc1ccc([N+](=O)[O-])cc1)NCC1CCCO1 (stereo not drawn) | inconclusive: 31.6 µM [inhibitor, single point] |  |
| COc1ccc(NC(=O)CSc2nc(O)cc(=O)n2C)cc1 | inconclusive: 39.8 µM [inhibitor, single point] |  |
| O=C1C2C(c3cccc(/C=C/c4ccccc4)c3)CC=CC2C(c2ccc3ccccc3c2)N1Cc1ccccc1 (stereo not drawn) | inconclusive: 25.1 µM [inhibitor, partial curve] |  |
| CC(C)Cn1c(N)c(C(=O)COC(=O)c2cc(C3CC3)nc3ccccc23)c(=O)n(C)c1=O | inconclusive: 31.6 µM [inhibitor, single point] and inconclusive: 35.5 µM [inhibitor, single point] |  |
| O=C(Nc1nnc(-c2ccco2)s1)C1CCN(S(=O)(=O)c2ccc(Cl)cc2)CC1 | inconclusive: 35.5 µM [inhibitor, partial curve] |  |
| COc1cc(C(=O)NNC(=S)NC(=O)c2ccc3c(c2)OCO3)cc(OC)c1OC | inconclusive: 35.5 µM [inhibitor, single point] |  |
| CN(C)CCNC(=O)c1ccc(-c2nn(C)c(=O)c3ccccc23)cc1 |  | inactive: -2.17% |
| O=C(c1ccccc1)c1cc(F)c(N2CCOCC2)cc1Cl | inconclusive: 12.6 µM [inhibitor, partial curve] |  |
| Cc1ccc(-n2ncc3c(NCc4ccccn4)ncnc32)c(C)c1 | inconclusive: 39.8 µM [inhibitor, single point] |  |
| COc1ccc(CCNc2c(N)n(Cc3ccccc3)c(=O)[nH]c2=O)cc1OC | inconclusive: 35.5 µM [inhibitor, single point] |  |
| CCOC(=O)c1cn2nc(N3CCCC3)ccc2n1 | inconclusive: 35.5 µM [inhibitor, single point] |  |
| CCCn1c(NC(=O)c2cccc(S(=O)(=O)N3CCCC3)c2)nc2ccccc21 | inconclusive: 35.5 µM [inhibitor, single point] |  |
| Cc1ccc(N(C)S(=O)(=O)c2cccc(C(=O)Oc3ccc4c(C)cc(=O)oc4c3)c2)cc1 | inconclusive: 28.2 µM [inhibitor, partial curve] |  |
| O=C(c1cccs1)N(Cc1nc2sc3c(c2c(=O)[nH]1)CCCC3)C1CCCC1 | inconclusive: 35.5 µM [inhibitor, single point] |  |
| Brc1ccc2nc(-c3cccs3)c(NCC3CCCO3)n2c1 (stereo not drawn) | inconclusive: 22.4 µM [inhibitor, single point] |  |
| CCOC(=O)NN1C(=O)c2ccccc2NC1c1ccc(OC)cc1 (stereo not drawn) | inconclusive: 28.2 µM [inhibitor, partial curve] |  |
| O=[N+]([O-])c1ccccc1-c1cc(-c2ccccc2O)n[nH]1 |  | inactive: -1.93% |
| CN(Cc1ccccc1)C(=O)c1nc2ccccn2c1CNCCn1cccn1 | inconclusive: 39.8 µM [inhibitor, single point] |  |
| COc1cc(OC)cc(OC)c1 |  | inactive: 6.6% |
| O=C(CCCn1c(=O)c2sccc2n(Cc2cc(=O)n3ccccc3n2)c1=O)NCc1ccco1 | inconclusive: 11.2 µM [inhibitor, partial curve] |  |
| Cc1ccccc1NC(=O)/C=C/c1cccs1 |  | inactive: -3.35% |

| Structure (SMILES) | Potency | activity change, negative = inhibition |
| --- | --- | --- |
| COc1cc(C(C(=O)NC2CCCCC2)N(Cc2cccs2)C(=O)Cc2c[nH]c3ccccc23)cc(OC)c1OC (stereo not drawn) |  | inactive: 2.53% |
| CC(C)Oc1ccc2c3c(c(=O)oc2c1)CCC3 | inconclusive: 28.2 µM [inhibitor, partial curve] |  |
| C=CCc1ccccc1OCCNCCCOC | inconclusive: 31.6 µM [inhibitor, single point] |  |
| CC(C)CNC(=S)Nc1ccc(Oc2ccccc2)cc1 |  | inactive: -7.97% |
| Cc1cc(OCCSc2nnc(-c3cccs3)n2C)ccc1Cl | inconclusive: 35.5 µM [inhibitor, single point] |  |
| O=C(NNc1ccccc1[N+](=O)[O-])Nc1cccc(Cl)c1 | inconclusive: 28.2 µM [inhibitor, single point] |  |
| NC(=O)Cc1ccc2c(c1)[nH]c1ccccc12 | inconclusive: 39.8 µM [inhibitor, single point] |  |
| NC(=O)COC(=O)c1cc(-c2ccco2)nc2ccccc12 | inconclusive: 31.6 µM [inhibitor, partial curve] |  |
| Cc1[nH]c2ccccc2c1C1=NNC(=Nc2ccc(F)cc2)SC1 |  | inactive: -6.25% |
| Cc1c(Br)c(=O)oc2c(Br)c(O)ccc12 | inconclusive: 12.6 µM [inhibitor, partial curve] |  |
| CCOC(=O)C1=C(CNCc2ccccc2Cl)NC(=O)NC1c1cccc([N+](=O)[O-])c1 (stereo not drawn) | inconclusive: 39.8 µM [inhibitor, single point] |  |
| Cc1ccc2c(c1)c1c(n2CC(O)CNC(CO)(CO)CO)CCCC1 (stereo not drawn) | inconclusive: 39.8 µM [inhibitor, single point] |  |
| CC(C)=CCn1cnc2c1C(NOCc1ccccc1)=NCN2 |  | inactive: -1.67% |
| CCCC/C(=N\NC(=O)c1ccc(Br)o1)c1ccccc1 |  | inactive: 21% |
| Cc1ccc(C2CC(c3cccc(C)c3)n3nc(N)nc3N2)cc1 (stereo not drawn) | inconclusive: 39.8 µM [inhibitor, single point] |  |
| CCc1cc(C(c2ccccc2OC)N2CCOCC2)c(NC(=O)c2ccccc2)s1 (stereo not drawn) | inconclusive: 39.8 µM [inhibitor, single point] |  |
| CCCCn1c(=O)[nH]c(=O)c2c1nc(-c1ccc(C(F)(F)F)cc1)n2C | inconclusive: 3.98 µM [inhibitor, full curve] |  |
| COc1ccccc1NS(=O)(=O)c1cccc(C(=O)N/N=C/c2ccc(NC(C)=O)cc2)c1 | inconclusive: 35.5 µM [inhibitor, single point] |  |
| O=C(CN1N=C(c2ccccc2)CCC1=O)NCc1cccs1 |  | inactive: -8.25% |
| CSC1=N/C(=C\c2ccc(Br)o2)C(=O)S1 |  | inactive: 2.3% |
| CC(=O)C1=C(c2ccccc2)NC(=O)NC1c1ccc(O)c(O)c1 (stereo not drawn) | inconclusive: 39.8 µM [inhibitor, partial curve, poor fit] |  |
| CSc1ncc(CN2CCc3c([nH]c4ccccc34)C2c2cccc(C)n2)cn1 (stereo not drawn) |  | inactive: -0.085% |
| COc1cc(OC)c2c(=O)c(O)c(-c3ccc(OC)c(OC)c3)oc2c1 | inconclusive: 28.2 µM [inhibitor, single point] |  |

| Structure (SMILES) | Potency | activity change, negative = inhibition |
| --- | --- | --- |
| Cc1o[nH]c(=O)c1CC[C@H](N)C(=O)O |  | inactive: -8.94% |
| Cc1[nH]nc2c1C(c1cccc(OC(=O)N3CCOCC3)c1)C(C#N)=C(N)O2 (stereo not drawn) | inconclusive: 39.8 µM [inhibitor, single point] |  |
| CCCCNCCOc1ccccc1-c1ccccc1 | inconclusive: 39.8 µM [inhibitor, single point] |  |
| CCOC(=O)Cc1c(C)nc2c(-c3ccccc3)c[nH]n2c1=O | inconclusive: 31.6 µM [inhibitor, partial curve] |  |
| Cc1cc(SCc2cc(=O)n3ccsc3n2)nc2ccccc12 |  | inactive: -6.08% |
| CCN(Cc1ccccc1)c1ccc(/C=N/NC(=S)NC(C)C)cc1 | inconclusive: 28.2 µM [inhibitor, partial curve] |  |
| O=C(Nc1nc2c(s1)CCCC2)c1cccc(S(=O)(=O)N2CCCc3ccccc32)c1 | inconclusive: 35.5 µM [inhibitor, single point] |  |
| O=C(CN1C(=O)c2cccc3cccc1c23)Nc1ccc(S(=O)(=O)N2CCOCC2)cc1 | inconclusive: 39.8 µM [inhibitor, single point] |  |
| CCCc1cc(=O)[nH]c(-n2[nH]c3c(c2=O)CCCC3)n1 |  | inactive: 8.05% |
| COc1cccc(OC)c1OCCCOc1ccc([N+](=O)[O-])cc1Cl |  | inactive: 7.45% |
| O=C1C(=O)N(Cc2cccnc2)C(c2ccccn2)/C1=C(/O)c1ccc(F)cc1 (stereo not drawn) | inconclusive: 22.4 µM [inhibitor, single point] |  |
| COc1cccc2c(=O)c3ccccc3oc12 | inconclusive: 8.91 µM [inhibitor, partial curve] |  |
| COC(=O)C1=C(C)NC2=C(C(=O)CC(c3cccs3)C2)C1c1ccsc1 (stereo not drawn) | inconclusive: 35.5 µM [inhibitor, partial curve] |  |
| O=C(O)c1cc2nc(-c3ccccc3)cc(C(F)(F)F)n2n1 | inconclusive: 39.8 µM [inhibitor, single point] |  |
| COc1cc(NS(=O)(=O)c2ccc(N/C=C\C(=O)c3ccc(F)cc3)cc2)nc(OC)n1 | inconclusive: 31.6 µM [inhibitor, partial curve] |  |
| CCCCC(=O)N/N=C/c1ccc(-c2ccc([N+](=O)[O-])cc2)o1 |  | inactive: -11.1% |
| CCCC(=O)N1CCN(c2ccc(NC(=O)c3cc4ccccc4o3)cc2Cl)CC1 | inconclusive: 35.5 µM [inhibitor, single point] |  |
| COc1ccc(NC(=O)/C=C/c2ccc(Br)o2)cn1 | inconclusive: 28.2 µM [inhibitor, single point] |  |
| CC(OC(=O)CCc1nc2ccccc2c(=O)[nH]1)C(=O)c1ccc(Br)cc1 (stereo not drawn) | inconclusive: 39.8 µM [inhibitor, single point] |  |
| O=C(CCN1C(=O)c2cccc3cccc(c23)C1=O)NC1CCS(=O)(=O)C1 (stereo not drawn) | inconclusive: 28.2 µM [inhibitor, partial curve] |  |
| CN(C)c1ccc(/C=N\NC(=O)CC#N)cc1 | inconclusive: 28.2 µM [inhibitor, partial curve] |  |
| CCCCNCCCOc1ccc(C)cc1Br | inconclusive: 25.1 µM [inhibitor, single point] |  |
